Screen size: about 52,000 compounds; about 1,700 (3.3%) were called active. Rule as the data show it: active = survival mostly below about 52% (no sharp cut-off); inactive = mostly above about 56%. The list shows a part of the results.

The test system of the assay is Wild type. In words: S. aureus survival, RN4220 and DeltatarO strains – OD600, teichoic acid synthesis inhibitors, primary screen (AID 463173). Particulars: S. aureus RN4220 wild type/DeltatarO growth, OD600, 18 h, hits give low values, screened at 18.75 µg/mL (by protocol).
Consider `COc1ccc(-n2nc3ccc(NC(=O)c4ccc(-c5cc(Cl)ccc5Cl)o4)cc3n2)cc1`, for which the survival was inactive: 68%.

As for `C=CCc1ccccc1OCCSc1nc(-c2ccc(C(C)(C)C)cc2)nc2cc(=O)[nH]n12`, the survival is active: 0%.

On to `Clc1cccc(N2CCN(c3nc4ccccc4n4cnnc34)CC2)c1`, for which the survival was inactive: 70%.

As for `COc1ccc(-n2ccnc(NCc3ccc(Cl)cc3)c2=O)cc1`, the survival is active: 0%.

As to `COc1ccc(NC(=O)CCc2nnc3n(C)c(=O)c4sccc4n23)cc1`, the survival was inactive: 154%.

Consider `CCN(c1cc(C)cc(C)c1)S(=O)(=O)c1nnc(NC(=O)C2CCCCC2)s1`, for which the survival was inactive: 111%.

On to `O=C(Nc1ccc(Br)c2cccnc12)c1cccc2ccccc12`, for which the survival was inactive: 35%.

Turning to `Cc1cc(C)cc(NC(=O)CCC(=O)N2Cc3ccccc3Oc3ncccc32)c1`, the survival is inactive: 87%.

`COc1cccc(NC(=O)C2CCCN(S(=O)(=O)c3c(C)[nH]c(=O)[nH]c3=O)C2)c1` (stereo not drawn): the survival was inactive: 131%.

For the compound `CCCc1cnc2c(c1SCC(=O)N(C)c1ccccc1)c(=O)n(C)c(=O)n2C`, the survival was inactive: 133%.

With `Cc1c(Cl)ccc2sc(NC(=O)c3ccc(S(=O)(=O)N4CCCc5ccccc54)cc3)nc12`, the survival is inactive: 47%.

As to `Cc1ccc(CCNC(=O)c2cc3sccc3n2Cc2ccc(C)cc2)cc1`, the survival was inactive: 89%.

As to `Cc1c(Cl)cccc1-c1ccc(CNc2ccc3[nH]c(=O)[nH]c3c2)o1`, the survival is inactive: 86%.

Regarding `CC1CCN(S(=O)(=O)c2ccc3c(c2)oc(=O)n3CC(=O)NCc2ccc(F)cc2)CC1`, the survival is inactive: 138%.

Regarding `Cc1cc(C)cc(-n2c(SCC(=O)N3CCCCC3)nc3c([nH]c4ccccc43)c2=O)c1`, the survival was inactive: 78%.

Consider `CCc1ccccc1NC(=O)c1nnn(-c2ccc(F)cc2)c1C`, for which the survival was inactive: 69%.

In the case of `COc1cc2ccccc2cc1C(=O)Nc1ccc2oc(-c3ccc(F)cc3)nc2c1`, the survival was inactive: 81%.

For the compound `COc1ccc(NC(=O)c2oc3ccccc3c2NC(=O)c2cccc(F)c2)c(OC)c1`, the survival was inactive: 81%.

For the compound `CCOc1ccc(NC(=O)Cn2c(=O)n(Cc3ccco3)c(=O)c3oc4ccccc4c32)cc1`, the survival is inactive: 86%.

As to `Cc1ccc(SCc2nc(-c3ccc(C(=O)NCc4ccc(Cl)cc4)cc3)oc2C)cc1`, the survival was inactive: 64%.

In the case of `O=C(NC1CCCCC1)c1cc(Nc2cccc(C(F)(F)F)c2)nc2ccccc12`, the survival is inactive: 72%.

Consider `COc1cc(NC(=O)c2noc3c2CSc2ccccc2-3)cc(OC)c1OC`, for which the survival was inactive: 120%.

Regarding `COc1cc(C(=O)Nc2nc3nc(-c4ccccc4)cc(=O)n3[nH]2)cc(OC)c1OC`, the survival was inactive: 89%.

For the compound `Cc1ccn2c(=O)cc(CSc3nnc(NC(=O)c4ccccc4Cl)s3)nc2c1`, the survival was inactive: 82%.

In the case of `Cc1cc(C)c(CSc2nnc(C)n3c2cc2occc23)c(C)c1`, the survival is inactive: 36%.

With `CCN(Cc1ccccc1)C(=O)c1nc(-c2cccc(F)c2)n2c1CCCCC2`, the survival is inactive: 113%.

Regarding `Cc1ccn2c(Nc3ccccc3C)c(-c3ccccn3)nc2c1`, the survival was active: 24%.

Consider `COCCCNC(=O)C1CCCN(C(=O)c2cnn(-c3ccc(F)cc3)c2-n2cccc2)C1` (stereo not drawn), for which the survival is inactive: 128%.

For `COc1ccc(CNC(=O)c2cc3c(=O)[nH]c4ccccc4c3s2)cc1`, the survival was inactive: 87%.

`CCOC(=O)c1ccccc1NC(=O)CCOc1ccccc1`: the survival is active: 6%.

As to `Cc1cccc(N2CCN(C(=O)NCc3noc4ccccc34)CC2)c1C`, the survival is inactive: 73%.

As for `Cc1cccc(-c2noc(CN(C(=O)COc3ccc(Br)cc3C)C(C)C)n2)c1`, the survival is inactive: 30%.

Consider `O=C(NC1CCCCC1)c1cc2c(Cl)nc3ccccc3c2s1`, for which the survival was inactive: 77%.

`CCn1cnc2sc(C)c(C)c2c1=O`: the survival is inactive: 91%.

With `COc1ccccc1CNC(=O)C(=O)NCC(c1ccco1)S(=O)(=O)c1cccs1` (stereo not drawn), the survival was inactive: 101%.

On to `COc1ccc(Cl)cc1NC(=O)Cn1c(=O)n(Cc2ccco2)c(=O)c2cccnc21`, for which the survival is inactive: 80%.

With `CCn1c(=O)n(CC)c2cc(N3CCCCC3)c(NC(=O)Nc3cc(C)cc(C)c3)cc21`, the survival is inactive: 73%.

With `CCn1cc(C(=O)N2CCN(c3cc(C)ccc3C)CC2)c(=O)c2cc(S(=O)(=O)N3CCOCC3)ccc21`, the survival was inactive: 81%.

With `COc1ccc(C(=O)NCCn2cc(SCC(=O)Nc3cccc(C)c3)c3ccccc32)cc1`, the survival is inactive: 74%.

On to `O=C1C2C3C=CC(C3)C2C(=O)N1C1CC2CCC1C2` (stereo not drawn), for which the survival was inactive: 110%.

Take `Cc1oc2ncn(CC(C)C)c(=O)c2c1C(=O)N1CCN(c2cccc(C(F)(F)F)c2)CC1`: the survival was inactive: 100%.

With `CCOC(=O)C1CCN(C(=O)Cn2c(=O)cc(C)c3c(C)nn(C)c32)CC1`, the survival was inactive: 68%.

With `Cc1ccc(C)n1-c1c(C(=O)NCCC(C)C)sc2ncccc12`, the survival is inactive: 79%.

`COCCc1nn2c(=O)cc(COC(=O)c3ccc(OC)c(OC)c3)nc2s1`: the survival was inactive: 120%.

Consider `COc1cc(-c2nc3nc[nH]n3c2Nc2ccc(C(C)C)cc2)ccc1O`, for which the survival was inactive: 70%.

On to `Cc1cccc(-n2ncc3c(Nc4ccc(Oc5ccc(Cl)cc5)cc4)ncnc32)c1`, for which the survival was inactive: 88%.

Consider `CCc1nn(-c2ccccc2)c2nc(-c3cccc(OC)c3)c3cc(OC)c(OC)cc3c12`, for which the survival was inactive: 65%.

On to `CCOC(=O)c1ccccc1NC(=O)Cn1c(=O)n(Cc2nc(-c3ccccc3)no2)c(=O)c2ccccc21`, for which the survival was inactive: 59%.

For the compound `COc1ccccc1N1CCN(C(=O)Cn2ncc3c([nH]c4ccccc43)c2=O)CC1`, the survival is inactive: 78%.

Turning to `Cc1ccc(CNC(=O)CCCCn2c(=O)c3ccccc3n(Cc3c(C)cc(C)cc3C)c2=O)cc1`, the survival was inactive: 86%.

As for `COc1cccc(NC(=O)CSC2=Nc3ccccc3C3=NC(CC(=O)NCCc4ccccc4)C(=O)N23)c1` (stereo not drawn), the survival was inactive: 136%.

As to `COc1ccc(OC)c(S(=O)(=O)N2CCC(c3ccncc3)CC2)c1`, the survival was inactive: 124%.

For `CCOCCCNC(=O)NC(C)c1c(-n2cccc2)sc2c1CCN(CC)C2` (stereo not drawn), the survival is inactive: 123%.

In the case of `CCc1nnc(NC(=O)CCC(=O)N2CC3(C)CC2CC(C)(C)C3)s1` (stereo not drawn), the survival was inactive: 113%.

For the compound `O=C(c1ccc2c(c1)N(Cc1ccccc1F)C(=O)c1ccccc1S2(=O)=O)N1CCCCC1`, the survival is inactive: 90%.

With `COc1cccc(NC(=O)CSC2=Nc3ccccc3N=C(c3ccc(F)cc3)C2)c1`, the survival was inactive: 69%.

For the compound `CCc1ccc(C(=O)c2cn(CC(=O)NCCc3ccc(OC)c(OC)c3)c3nc(C)ccc3c2=O)cc1`, the survival is inactive: 71%.

For `CCc1ccc(-n2c(SCc3ccccc3F)nc3[nH]ncc3c2=O)cc1`, the survival was inactive: 93%.

With `O=C(CCc1nc(CN2CCN(S(=O)(=O)c3ccc(F)cc3)CC2)no1)N1CCCCC1`, the survival is inactive: 71%.

With `O=C1c2[nH]nc(-c3ccccc3O)c2C(c2ccc(Cl)cc2)N1Cc1ccco1` (stereo not drawn), the survival was active: -1%.

As to `O=c1nc2sc3ccccc3n2c(=O)n1-c1ccc(Cl)c(Cl)c1`, the survival is inactive: 27%.

Regarding `Cc1ccc2nc(N3CCN(Cc4nnnn4Cc4ccccc4)CC3)c(C#N)cc2c1`, the survival is inactive: 110%.

Turning to `COc1ccccc1NC(=O)Cn1c(=O)n(-c2cccc(C(C)=O)c2)c(=O)c2c3c(sc21)CN(C(C)=O)CC3`, the survival was inactive: 75%.

Turning to `NC(=O)Nn1c(CCC(=O)O)ccc1-c1ccc(Cl)cc1`, the survival is inactive: 108%.

With `O=C(CCC1N=C2c3ccccc3N=C(SCC(=O)Nc3ccccc3F)N2C1=O)NCc1ccccc1` (stereo not drawn), the survival is inactive: 76%.

Take `CCN1CCN(C(=O)c2cnn(-c3ccc(F)cc3)c2-n2cccc2)CC1`: the survival is inactive: 131%.

On to `Cc1ccc(C2C=C(c3ccc(Cl)cc3)Nc3nc(NS(=O)(=O)c4ccccc4)nn32)cc1` (stereo not drawn), for which the survival was inactive: 75%.

Turning to `CCCCN(C)CCNC(=O)c1nn(-c2ccc(OC)c(Cl)c2)c(=O)c2c1c1ccccc1n2C`, the survival was inactive: 77%.

`Cc1nn(-c2ccccc2)c2sc(C(=O)Nc3ccc(Cl)cc3Cl)cc12`: the survival was inactive: 72%.

Regarding `Cc1cccc(N2CCN(C(c3ccccc3F)c3nnnn3C(C)C)CC2)c1C` (stereo not drawn), the survival is inactive: 105%.

Turning to `OCc1nc2ccccc2n1Cc1ccccc1Cl`, the survival is inactive: 111%.

Turning to `COc1ccc(C(=O)Nc2nnc(SCc3cc(=O)c4cc(C)ccc4[nH]3)s2)cc1OC`, the survival was inactive: 82%.

Turning to `Cc1cccn2c(=O)c(C(=O)N3CCN(c4ccccc4F)CC3)cnc12`, the survival was inactive: 118%.

For `CC(C)Cc1nc2ccc(N)cc2[nH]1`, the survival is inactive: 124%.

Regarding `COc1ccc(CNC(=O)Cn2c(=O)c3cccn3c3cccnc32)cc1`, the survival was inactive: 114%.

Take `COc1ccc2c(C)c(CCC(=O)NCCc3ccccc3)c(=O)oc2c1`: the survival is inactive: 86%.

In the case of `COC(=O)C1=C(CS(=O)(=O)c2ccc(C)cc2C)NC(=O)NC1c1ccc(C)cc1` (stereo not drawn), the survival was inactive: 81%.

Consider `Cc1ccc(C(=O)CSc2nnc(CSc3nc(C)cc(C)n3)n2C)cc1`, for which the survival was inactive: 104%.

`Cc1cc(C)c(S(=O)(=O)NCc2ccc3c(c2)CCN3C(=O)c2ccccc2)c(C)c1`: the survival was inactive: 128%.

For `COC(=O)c1ccc(NC(=O)c2c(NCc3cccc(F)c3)sc3c2CCCC3)cc1`, the survival was inactive: 68%.

In the case of `N#C/C(=C(/O)CCCN1C(=O)c2ccccc2C1=O)c1nc2ccccc2[nH]1`, the survival is inactive: 107%.

On to `Cc1cc2c(cc1S(=O)(=O)N(CCN(C)C)Cc1ccccc1)OCC(=O)N2`, for which the survival was inactive: 75%.

Regarding `Cc1cccc(N2CCN(S(=O)(=O)c3cc(C(=O)Nc4ccc(Oc5ccccc5)cc4)ccc3F)CC2C)c1` (stereo not drawn), the survival is inactive: 75%.

Take `COc1ccc(C(=O)NCCn2cc(SCC(=O)Nc3ccc4c(c3)OCCO4)c3ccccc32)cc1`: the survival was inactive: 162%.

Take `COc1ccccc1C(c1c(O)cc(C)n(Cc2ccco2)c1=O)N1CCCCC1` (stereo not drawn): the survival is inactive: 77%.

With `Cc1ccc(NCC(O)CN)c(Br)c1` (stereo not drawn), the survival is inactive: 115%.

Consider `CCC(Oc1ccccc1F)C(=O)Nc1cc(-c2ccccc2)no1` (stereo not drawn), for which the survival is inactive: 66%.

As to `COc1ccc(S(=O)(=O)N(CC(=O)NCCSc2ccc(C)cc2)c2ccc(C)cc2)cc1`, the survival is inactive: 125%.

The record behind these values is PubChem BioAssay AID463173 (ICCB-Longwood Screening Facility, Harvard Medical School, 2010).
